# Reference: publication PMC9911399, “Two distinct binding modes provide the RNA-binding protein RbFox with extraordinary sequence specificity”
# Substitutions are numbered along the chain they refer to; changes in the protein carry UniProt numbers. The list shows a part of the results.
# T1: RBFOX1 RRM RbFoxmut (Fox-RRM*) (Homo sapiens, UniProt Q9NWB1 109-208, R118D;E147R;N151S;E152T)
# T1 sequence: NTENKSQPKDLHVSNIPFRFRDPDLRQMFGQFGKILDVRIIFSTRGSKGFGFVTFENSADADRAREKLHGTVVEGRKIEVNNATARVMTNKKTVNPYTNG
# B1: UAGCCGC (DNA:RNA)
# RNA: GGGAGACCGGAAUUCAGAUUGUCCUAGCCGCUUAAAUCCCGUCGUAGCCACCA
# DNA 1: CAATCTGAATTCCGGTCTCCC
# DNA 2: TGGTGGCTACGACGGGATT
# B2: AAAUCAC (DNA:RNA)
# RNA: B1 RNA with U25A, G27A, C28U, G30A
# DNA 1: CAATCTGAATTCCGGTCTCCC
# DNA 2: TGGTGGCTACGACGGGATT
# B3: GCCUAUC (DNA:RNA)
# RNA: B1 RNA with U25G, A26C, G27C, C28U, C29A, G30U
# DNA 1: CAATCTGAATTCCGGTCTCCC
# DNA 2: TGGTGGCTACGACGGGATT
# B4: GAGUCCC (DNA:RNA)
# RNA: B1 RNA with U25G, C28U, G30C
# DNA 1: CAATCTGAATTCCGGTCTCCC
# DNA 2: TGGTGGCTACGACGGGATT
# B5: GGAAUGU (DNA:RNA)
# RNA: B1 RNA with U25G, A26G, G27A, C28A, C29U, C31U
# DNA 1: CAATCTGAATTCCGGTCTCCC
# DNA 2: TGGTGGCTACGACGGGATT
# B6: UUACGCU (DNA:RNA)
# RNA: B1 RNA with A26U, G27A, C29G, G30C, C31U
# DNA 1: CAATCTGAATTCCGGTCTCCC
# DNA 2: TGGTGGCTACGACGGGATT
# B7: GUAUCUU (DNA:RNA)
# RNA: B1 RNA with U25G, A26U, G27A, C28U, G30U, C31U
# DNA 1: CAATCTGAATTCCGGTCTCCC
# DNA 2: TGGTGGCTACGACGGGATT
# B8: GGAGGUU (DNA:RNA)
# RNA: GGGAGACCGGAAUUCAGAUUGUCCGGAGGUUUUAAAUCCCGUCGUAGCCACCA
# DNA 1: CAATCTGAATTCCGGTCTCCC
# DNA 2: TGGTGGCTACGACGGGATT
# B9: ACGCGGA (DNA:RNA)
# RNA: B1 RNA with U25A, A26C, C29G, C31A
# DNA 1: CAATCTGAATTCCGGTCTCCC
# DNA 2: TGGTGGCTACGACGGGATT
# B10: CCCUAGG (DNA:RNA)
# RNA: B1 RNA with U25C, A26C, G27C, C28U, C29A, C31G
# DNA 1: CAATCTGAATTCCGGTCTCCC
# DNA 2: TGGTGGCTACGACGGGATT
# B11: AGCUGAA (DNA:RNA)
# RNA: B8 RNA with G25A, A27C, G28U, U30A, U31A
# DNA 1: CAATCTGAATTCCGGTCTCCC
# DNA 2: TGGTGGCTACGACGGGATT
# B12: AUCCGGC (DNA:RNA)
# RNA: B1 RNA with U25A, A26U, G27C, C29G
# DNA 1: CAATCTGAATTCCGGTCTCCC
# DNA 2: TGGTGGCTACGACGGGATT
# B13: GAUAACU (DNA:RNA)
# RNA: B8 RNA with G26A, A27U, G28A, G29A, U30C
# DNA 1: CAATCTGAATTCCGGTCTCCC
# DNA 2: TGGTGGCTACGACGGGATT
# B14: GUAUCAA (DNA:RNA)
# RNA: B8 RNA with G26U, G28U, G29C, U30A, U31A
# DNA 1: CAATCTGAATTCCGGTCTCCC
# DNA 2: TGGTGGCTACGACGGGATT
# B15: CUACGUG (DNA:RNA)
# RNA: B8 RNA with G25C, G26U, G28C, U31G
# DNA 1: CAATCTGAATTCCGGTCTCCC
# DNA 2: TGGTGGCTACGACGGGATT
# B16: AAGACAA (DNA:RNA)
# RNA: B1 RNA with U25A, C28A, G30A, C31A
# DNA 1: CAATCTGAATTCCGGTCTCCC
# DNA 2: TGGTGGCTACGACGGGATT
# B17: AGGCCAC (DNA:RNA)
# RNA: B1 RNA with U25A, A26G, G30A
# DNA 1: CAATCTGAATTCCGGTCTCCC
# DNA 2: TGGTGGCTACGACGGGATT
# B18: AUUCGAU (DNA:RNA)
# RNA: B8 RNA with G25A, G26U, A27U, G28C, U30A
# DNA 1: CAATCTGAATTCCGGTCTCCC
# DNA 2: TGGTGGCTACGACGGGATT
# B19: UGAUCCC (DNA:RNA)
# RNA: B1 RNA with A26G, G27A, C28U, G30C
# DNA 1: CAATCTGAATTCCGGTCTCCC
# DNA 2: TGGTGGCTACGACGGGATT
# B20: ACGAACC (DNA:RNA)
# RNA: B1 RNA with U25A, A26C, C28A, C29A, G30C
# DNA 1: CAATCTGAATTCCGGTCTCCC
# DNA 2: TGGTGGCTACGACGGGATT
# Biological target: T1, RBFOX1 RRM RbFoxmut (Fox-RRM*)
# Assay: EMSA; HiTS-Eq, 1 nM pool, 10 min; buffer printed only for the single-RNA assays: 10 mM Tris pH 7.5, 150 mM NaCl, 3.4 mM EDTA, 0.001% NP-40, 30 C
# Conditions: tags: His6 N-terminal (pET28a); label: 5' 32P
# Summary of the method: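 Purified RbFox RRM, wild type or mutant, was incubated for 10 min in 50 µL with 1 nM of a 5′-radiolabelled RNA pool carrying 7 randomized nucleotides, whose flanks were annealed to DNA oligonucleotides, over a series of increasing protein concentrations. Unbound RNA was resolved on 8% native PAGE, cut out, reverse-transcribed, barcoded by PCR and sequenced on an Illumina HiSeq 2500. Relative association constants were derived from changes in read counts for each RNA species versus the control reaction and normalised to the cognate motif.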
row,Binder,binding signal
1,B1,0.09 KA relative to UGCAUGU
2,B2,0.0617 KA relative to UGCAUGU
3,B3,0.0555 KA relative to UGCAUGU
4,B4,0.0538 KA relative to UGCAUGU
5,B5,0.959 KA relative to UGCAUGU
6,B6,0.0947 KA relative to UGCAUGU
7,B7,0.176 KA relative to UGCAUGU
8,B8,0.092 KA relative to UGCAUGU
9,B9,0.0674 KA relative to UGCAUGU
10,B10,0.0788 KA relative to UGCAUGU
11,B11,0.0716 KA relative to UGCAUGU
12,B12,0.0968 KA relative to UGCAUGU
13,B13,0.083 KA relative to UGCAUGU
14,B14,0.175 KA relative to UGCAUGU
15,B15,0.0815 KA relative to UGCAUGU
16,B16,0.0493 KA relative to UGCAUGU
17,B17,0.062 KA relative to UGCAUGU
18,B18,0.0636 KA relative to UGCAUGU
19,B19,0.0513 KA relative to UGCAUGU
20,B20,0.0819 KA relative to UGCAUGU
